# From PubChem BioAssay AID504339 (National Center for Advancing Translational Sciences (NCATS), 2011)
# Several values for one entry are separate records, joined by “and”; a condition that tells them apart may be missing. Equal values may be shown once. About 17,000 (4.4%) of roughly 390,000 compounds were called active. Inconclusive results, whose numbers are uncertain, are shown with a selection of clear calls. Calls come from the whole dose curve; as a rule, active = well fitted inhibition curve with a large enough effect; inconclusive = small, poorly fitted or top-dose-only effect; inactive = no such curve, though single readings can be large or run the other way. A potency beside an inconclusive call is a rough fit, not a confirmed value.
# Target: Lysine-specific demethylase 4A (Homo sapiens) (UniProt O75164)
# Test: qHTS Assay for Inhibitors of JMJD2A-Tudor Domain; note: nearly all actives have a fitted effect of over 50% in size
# Settings: AlphaScreen JMJD2A-Tudor / H3K4me3 peptide binding; activity change, negative = inhibition: at 114 µM (top of the series)
# % is set by controls: 0 for no effect and ±100 for the full control effect; potency is the fitted concentration of half-maximal effect; tags give direction and shape of the fitted curve.
# Chain of UniProt O75164 (O75164 whole entry, looked up, the tested form may be a part): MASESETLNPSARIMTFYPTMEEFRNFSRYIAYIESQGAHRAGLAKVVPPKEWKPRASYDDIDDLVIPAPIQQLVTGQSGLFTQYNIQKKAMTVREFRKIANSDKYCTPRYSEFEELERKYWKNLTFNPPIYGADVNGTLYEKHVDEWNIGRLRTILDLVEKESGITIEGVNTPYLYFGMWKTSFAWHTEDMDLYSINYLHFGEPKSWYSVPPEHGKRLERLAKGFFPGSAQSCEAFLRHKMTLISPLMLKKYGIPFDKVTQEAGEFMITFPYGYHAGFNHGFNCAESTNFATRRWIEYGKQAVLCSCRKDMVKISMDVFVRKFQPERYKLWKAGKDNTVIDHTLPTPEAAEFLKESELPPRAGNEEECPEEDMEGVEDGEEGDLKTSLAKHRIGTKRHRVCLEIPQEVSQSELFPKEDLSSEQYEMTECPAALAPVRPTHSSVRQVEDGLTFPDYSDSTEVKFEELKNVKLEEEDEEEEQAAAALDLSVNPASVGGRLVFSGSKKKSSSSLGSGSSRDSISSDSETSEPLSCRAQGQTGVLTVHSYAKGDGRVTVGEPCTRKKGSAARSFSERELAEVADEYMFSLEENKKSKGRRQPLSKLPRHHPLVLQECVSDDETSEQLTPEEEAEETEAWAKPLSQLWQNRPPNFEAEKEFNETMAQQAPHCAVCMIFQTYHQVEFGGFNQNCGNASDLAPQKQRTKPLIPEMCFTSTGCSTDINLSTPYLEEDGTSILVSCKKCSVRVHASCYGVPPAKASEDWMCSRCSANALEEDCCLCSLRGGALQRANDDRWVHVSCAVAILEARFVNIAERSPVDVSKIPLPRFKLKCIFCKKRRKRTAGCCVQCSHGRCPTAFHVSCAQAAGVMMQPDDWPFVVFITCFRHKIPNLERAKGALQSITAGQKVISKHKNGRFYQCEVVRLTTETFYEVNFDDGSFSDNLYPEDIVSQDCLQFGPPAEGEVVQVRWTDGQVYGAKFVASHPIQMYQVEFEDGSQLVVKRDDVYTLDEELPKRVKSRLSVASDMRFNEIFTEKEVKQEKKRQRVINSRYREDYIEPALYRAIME
SMILES,Potency,"activity change, negative = inhibition"
c1csc(CNc2ncnc3cc(-c4ccc5c(c4)OCO5)ccc23)c1,"inconclusive: 63.1 µM [inhibitor, partial curve, poor fit]",
OCCNCCSc1nc(C2CCCCC2)n(-c2ccccc2Cl)n1,active: 0.891 µM,
O=C(/C=C1\NC2(CCCC2)Cc2ccccc21)C(=O)N/N=C/c1ccc(O)c(O)c1,active: 10 µM,
CCN1CCN(Cc2c(O)ccc3c2O/C(=C\C=C\c2ccccc2OC)C3=O)CC1,"inconclusive: 39.8 µM [inhibitor, single point]",
COC(=O)C(CCCN1C(=O)c2ccccc2C1=O)(NC(C)=O)c1nn[nH]n1 (stereo not drawn),"inconclusive: 39.8 µM [inhibitor, single point]",
Brc1ccc2[nH]c3c(c2c1)CCC3,"inconclusive: 22.4 µM [inhibitor, full curve, poor fit]",
CCOc1ccccc1N1CCN(C(=O)c2ccc(Cl)c(S(=O)(=O)N3CCCCC3)c2)CC1,"inconclusive: 56.2 µM [inhibitor, partial curve]",
COc1cc(C(CCN2CCCC(C)C2)c2c(OC)cc(OC)c3c2OC(=O)CC3c2ccc(N(C)C)cc2)cc(OC)c1OC (stereo not drawn),active: 35.5 µM and active: 15.8 µM,
Cc1c(C)n(Cc2ccc(F)cc2)c2ccc(C(=O)N3CCN(c4ccc(F)cc4)CC3)cc12,"inconclusive: 22.4 µM [inhibitor, full curve]",
CCOc1ccc2oc(=O)cc(CN3CCN(C(=O)c4ccc(OC)c(OC)c4)CC3)c2c1,,inactive: -6.29%
CC(C)(C)OC(=O)N/N=C\C=C\c1ccc2c(c1)OCO2,,inactive: 3.45%
CCn1c(CNC(=O)Cc2ccc(OC)cc2)n[nH]c1=S,"inconclusive: 14.1 µM [inhibitor, partial curve, poor fit]",
O=C(O)CCCNC(=O)c1ccccn1,"inconclusive: 31.6 µM [inhibitor, full curve]",
O=C1C=C(Nc2ccccc2)c2ccccc2C1=O,,inactive: -31.5%
CCOc1cc(C=C(C(=O)OC)C(=O)OC)ccc1OCc1ccc([N+](=O)[O-])cc1,,inactive: -18.1%
Clc1ccccc1-c1ccc2ncnc(NCc3cccnc3)c2c1,"inconclusive: 44.7 µM [inhibitor, single point]",
COc1c(F)c(F)cc2c(=O)c(C(=O)O)cn(C3CC3)c12,active: 28.2 µM,
Cc1nc2ncnn2c(N2CCN(C(=O)Cc3cccs3)CC2)c1C,"inconclusive: 50.1 µM [inhibitor, partial curve]",
COc1ccc(Nc2nc(N)nc(CN3CCN(c4ccc(F)cc4)CC3)n2)cc1,"inconclusive: 56.2 µM [inhibitor, partial curve]",
Cc1ccc2ccc3ccc(C)nc3c2n1,,inactive: -24.1%
c1cn(C23CC4CC(CC(C4)C2)C3)cn1,,inactive: -13.9%
CC(=O)Nc1ccc(S(=O)(=O)N(Cc2ccco2)Cc2cc3ccccc3[nH]c2=O)cc1,,inactive: -18.3%
CCn1c(C)nc2cc(S(=O)(=O)N3CCCC3)ccc21,,inactive: -11.5% [at 11.4 µM]
CN(N=Cc1cccc2cccnc12)c1ccc([N+](=O)[O-])cc1[N+](=O)[O-],"inconclusive: 6.31 µM [inhibitor, full curve]",

SMILES,Potency,"activity change, negative = inhibition"
Cc1ccc(Nc2nc(C(=O)N3CCC(C(=O)N4CCN(C)CC4)CC3)cs2)cc1,"inconclusive: 89.1 µM [inhibitor, single point]",
CC1CCC(NC(=O)COC(=O)c2n[nH]c(=O)c3ccccc23)CC1 (stereo not drawn),"inconclusive: 28.2 µM [inhibitor, partial curve]",
Nc1nc(NCc2ccccc2)nc(Nc2cccc(F)c2)c1[N+](=O)[O-],,inactive: -17.9%
CC(C)C(C)(C#N)NC(=O)CSc1nnc(-c2ccncc2)n1Cc1ccccc1 (stereo not drawn),active: 70.8 µM,
CC12C(=O)N(c3ccc(OC(=O)c4ccco4)cc3)C(=O)C1C1c3ccccc3C2c2ccccc21 (stereo not drawn),,inactive: -14.2%
COc1ccc(NC(=O)c2ccc3nc[nH]c3c2)c(OC)c1,,inactive: -15.4%
COc1ccc(NC(=O)CCN2CCN(Cc3ccccc3)CC2)c(OC)c1,,inactive: -1.66%
CCC(C)c1ccccc1OCCCCN1CCCC1 (stereo not drawn),active: 3.16 µM,
Cn1nnc2c(NCc3ccc(Cl)cc3)ncnc21,,inactive: -14.6%
CCOc1cccc(C(=O)NC(=S)Nc2cccc(C)c2)c1,"inconclusive: 63.1 µM [inhibitor, single point]",
Cc1ccc2[nH]cc(CCNC(=O)c3ccc([N+](=O)[O-])cc3)c2c1,"inconclusive: 25.1 µM [inhibitor, single point]",
O=C1OC2(CCCC2)OC(=O)C1=Cc1c[nH]c2ccccc12,active: 89.1 µM,
Clc1ccccc1OCCCn1ccnc1,active: 17.8 µM,
O=[N+]([O-])c1cc(C(F)(F)F)ccc1NCCc1c[nH]c2ccccc12,active: 22.4 µM,
Cc1ccc(-c2ccc(CCC(=O)O)n2Cc2ccco2)cc1,"inconclusive: 79.4 µM [inhibitor, partial curve]",
CN1c2ccc(C=O)c3c(C=O)ccc(c23)N(C)C1(C)C,"inconclusive: 89.1 µM [inhibitor, partial curve]",
COc1ccccc1C1CCN(c2cc(O)ccc2[N+](=O)[O-])CC1,active: 50.1 µM,
COc1ccc(C2(Nc3cccc(F)c3)C(=O)c3ccccc3C2=O)cc1,"inconclusive: 35.5 µM [inhibitor, partial curve]",
CCn1c(C)c(C)c2cc(C(=O)NCCCN3CCOCC3)ccc21,"inconclusive: 79.4 µM [inhibitor, partial curve]",
CCCCn1c(-c2sccc2C)n[nH]c1=S,active: 4.47 µM,
N#Cc1ccccc1CN1C(=O)c2ccccc2S1(=O)=O,,inactive: -3.69%
Cc1ccc(Cn2nnc3c(=O)[nH]c(C4CCCN(C(=O)Nc5ccc(F)cc5F)C4)nc32)cc1 (stereo not drawn),"inconclusive: 89.1 µM [inhibitor, partial curve]",
Cc1c(C(=O)O)oc2c1/C(=N\O)CCC2,"inconclusive: 70.8 µM [inhibitor, single point]",
COc1ccccc1CC(=O)Nc1cc(OC)c(NC(=O)c2ccccc2)cc1OC,"inconclusive: 39.8 µM [inhibitor, single point]",
